Measured values reported in patent CN114984207A (ZHEJIANG TERUISI PHARMACEUTICAL INC, dated 2022).

B1: PR (Fc fusion)
chain: QVQLQESGGGLVQPGGSLRLSCAASGSTYLRFSMGWFRQVPGKGLEGVAAIGGDGRTSYADSVKGRFTISKDNSKNTLYLDMNSLRAEDTAVYYCAAAVLLDGSFSLLAPLVPYKYDYWGQGTLVTVSS[omitted - human IgG4 Fc with S228P (EU numbers)]
notes: Expressed in CHO-S cells and purified on Protein A; also called 优化前序列PR; 对照抗体
B2: 抗PD-1纳米抗体 N10 (Fc fusion)
chain: QVQLQESGGGLVQPGGSLRLSCAASGSTYLRFSMGWFRQVPGKEREGVAAIGGDGRTSYADSVKGRFTISKDNSKNTLYLDMNSLRAEDTAVYYCAAAVLLDGSFSLLAPLVPYKYDYWGQGTLVTVSSEPKIPQPQPKPQPQPQPQPKPQPKPEPE[omitted - human IgG4 Fc with S228P (EU numbers)]
B3: 抗PD-1纳米抗体 N14 (Fc fusion)
chain: QVQLQESGGGLVQPGGSLRLSCAASGSTYLRFSMGWFRQVPGKEREGVAAIGGDGRTSYADSVKGRFTISKDNSKNTLYLDMNSLRAEDTAVYYCAAAVLLDGSFSLLAPLVPYKYDYWGQGTLVTVSSEPKIPQPQPK[omitted - human IgG4 Fc with S228P (EU numbers)]
B4: 抗PD-1纳米抗体 N15 (Fc fusion)
chain: QVQLQESGGGLVQPGGSLRLSCAASGSTYLRFSMGWFRQVPGKEREGVAAIGGDGRTSYADSVKGRFTISKDNSKNTLYLDMNSLRAEDTAVYYCAAAVLLDGSFSLLAPLVPYKYDYWGQGTLVTVSSEPKIPQPQPKPQPKPEPE[omitted - human IgG4 Fc with S228P (EU numbers)]

Columns and labels:
人PD-1蛋白(Acro PD1-HB2F2) = target: T1, 人PD-1蛋白(Acro PD1-HB2F2) (human, UniProt Q15116 partial chain, limits assumed); test: ELISA, human PD-1 protein coated at 20 ng/mL, antibody titrated from 1000 ng/mL
T1 construct: Bought protein coated on the ELISA plate; also called 抗原PD-1蛋白; human PD-1 protein

[1] = target: T2, PD-1蛋白 (冻干, fortebio assay) (UniProt Q15116 partial chain, limits assumed); test: BLI (Octet K2), antibody captured on Protein A sensor, PD-1 protein as analyte from 50 nM, 2-fold dilutions
T2 construct: also called 抗原PD-1蛋白; 冻干PD-1蛋白

Chain of 人PD-1蛋白(Acro PD1-HB2F2) (Q15116 25-167 limits assumed): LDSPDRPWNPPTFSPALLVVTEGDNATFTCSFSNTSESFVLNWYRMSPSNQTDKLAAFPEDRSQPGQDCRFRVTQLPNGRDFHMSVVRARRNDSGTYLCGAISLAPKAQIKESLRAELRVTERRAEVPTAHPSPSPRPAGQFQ

Binder | EC50 (人PD-1蛋白(Acro PD1-HB2F2)) [µg/mL] | Kd [1] [nM] | koff [1] [s⁻¹] | kon [1] [M⁻¹ s⁻¹]
B1 | 0.0159 | 4.72 | 0.00113 | 239000
B2 | 0.0149 | – | – | 277000
B3 | 0.0151 | – | – | 249000
B4 | 0.0111 | – | – | 316000
